# Out of some 320,000 compounds screened, about 200 (0.062%) were called active. The inconclusive results got no clear call from the source; some entries with a clear call stand among them for comparison. The call rests on the fitted dose curve; in most records, active means well fitted activation curve with a large enough effect; inconclusive means small, poorly fitted or top-dose-only effect; inactive means no such curve, though single readings can be large or run the other way. No potency is given beside an inconclusive call; the fits are too rough.
# Test: qHTS assay for re-activators of p53 using a Luc reporter; further: nearly all actives have a fitted effect of over 45% in size; on activity change, positive = activation: % of control where 0% means no effect
# Conditions: H1299 p53-A138V BP100-luciferase reporter, luminescence, 24 h; series mostly up to 92.2 µM; activity change, positive = activation: at the top concentration
# Procedure, shortened: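 p53-null H1299 cells stably carrying temperature-sensitive p53-A138V and a BP100-luciferase reporter were pinned with compounds (4-point, 1:5 series) and held 24 hrs at 37 deg C. Luminescence was read 10 min after detection reagent.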
# Potency means the concentration at half of the fitted maximal effect; tags describe the fitted curve by direction and shape.
Structure (SMILES),"activity change, positive = activation",Potency
COc1cccc(OC)c1C(=O)NC(=S)Nc1ccc2c(c1)OCCO2,inactive: 4.47%,
O=C(Nc1nc2ccccc2[nH]1)c1cccc(Cl)c1,,"inconclusive [activator, partial curve, poor fit]"
CC1=NN(c2ccc(C(=O)OC(C)C)cc2)C(=O)/C1=C\C=C\c1ccco1,,"inconclusive [activator, partial curve, poor fit]"
Cn1nnnc1Sc1ncnc2scc(-c3ccccc3C(F)(F)F)c12,,"inconclusive [activator, partial curve, poor fit]"
CCOC(=O)C1CCN(C(=O)c2cc3c(C)cc(C)cc3[nH]2)CC1,,"inconclusive [activator, single point]"
COc1ccc(S(=O)(=O)Nc2cc(C)ccn2)cc1,inactive: -5.52%,
O=C(OCCc1cc2ccccc2c(=O)o1)N1CCOCC1,,"inconclusive [activator, full curve, poor fit]"
O=C(CCS(=O)(=O)c1ccccc1)Nc1nc2c(s1)CCCC2,,"inconclusive [activator, partial curve, poor fit]"
O=C(CSc1nnc(-c2ccccc2)c(-c2ccccc2)n1)Nc1ncc(Cl)cc1Cl,,"inconclusive [activator, single point]"
C/C=C/C=C/C(=O)[C@@H]1[C@@H]([C@]2(C)OC(=O)C(C)=C2O)[C@H]2/C(=C(O)/C=C/C=C/C)C(=O)[C@]1(C)C(=O)C2(C)O (some centres not stated),inactive: 14.8%,
O=[N+]([O-])c1ccc(CN2CCCCCC2)s1,,"inconclusive [activator, full curve]"
COc1ccccc1CNS(=O)(=O)c1ccc(-n2cnnn2)c(OC)c1,inactive: 5.49%,
C=CCOC(=O)C1=C(C)NC(=S)NC1/C=C/c1ccccc1 (configuration not stated),inactive: 2.89%,
c1cn2cc(CSC3CCCCC3)nc2s1,,"inconclusive [activator, full curve, poor fit]"
CCOC(=O)c1c(NC(=O)c2ccccc2N(C)S(=O)(=O)c2ccccc2)sc2c1CCCC2,,"inconclusive [activator, single point]"
CCN(Cc1ccccc1)S(=O)(=O)c1cc(C(=O)NCC2CCCCC2)ccc1OC,inactive: 2.9%,
COC(=O)c1ccc(NC(=S)NC(=O)c2cccnc2)cc1,inactive: 1.8%,
Cc1cc(C(=O)Nc2nnc(-c3ccccc3)s2)no1,,"inconclusive [activator, single point]"
Cc1ccccc1/C(N)=N/OC(=O)c1ccc(F)cc1,,"inconclusive [activator, partial curve, poor fit]"
Cc1cc(-c2nc(-c3ccncc3)no2)ccc1[N+](=O)[O-],,"inconclusive [activator, partial curve, poor fit]"
COc1ccccc1CNC(=O)CN1C(=O)N(C)C2(CCCCC2)C1=O,,"inconclusive [activator, single point]"

Structure (SMILES),"activity change, positive = activation",Potency
COc1ccc2oc(=N)c(C(=O)Nc3cccc(C)c3C)cc2c1,inactive: 10.2%,
Cc1cc(C(=O)CSc2n[nH]c(N)n2)c(C)n1-c1ccc(F)cc1,,"inconclusive [activator, partial curve, poor fit]"
O=C(N/N=C/c1ccc([N+](=O)[O-])o1)c1cccc(S(=O)(=O)N2CCOCC2)c1,,"inconclusive [activator, single point]"
Nc1c(Cl)cc(C2=NCCn3c2c2ccccc2[n+]3[O-])cc1Cl,inactive: 5.51%,
Cc1ccc(C)n1-c1ccc(N(C)C)cc1,,"inconclusive [activator, single point]"
Nc1c(-c2ccccc2)cnc2cc(-c3ccccc3)nn12,,"inconclusive [activator, partial curve, poor fit]"
c1nc(C2CCCCC2)cc2cc3c(cc12)OCO3,,"inconclusive [activator, partial curve, poor fit]"
O=C(Nc1ccccc1)C1Cc2ccccc2CN1C(=O)c1ccco1 (configuration not stated),,"inconclusive [activator, partial curve, poor fit]"
COC(=O)Cc1c(C)c2ccc(OCC(C)=O)c(C)c2oc1=O,,"inconclusive [activator, full curve, poor fit]"
Brc1ccc(/C=N/Nc2nc3ccccc3o2)cc1,,"inconclusive [activator, partial curve, poor fit]"
CC(=O)NCCC(=O)Nc1cc(S(=O)(=O)N2CCOCC2)ccc1Oc1ccc(F)cc1,inactive: -8.17%,
Cc1cccc(Nc2nc(-c3ccc4c(c3)OCCO4)cs2)c1,,"inconclusive [activator, partial curve, poor fit]"
CCOC(=O)NC1(Nc2ccc(Cl)cn2)Oc2ccccc2O1,,"inconclusive [activator, full curve, poor fit]"
O=c1c2c(nc3n1CCCCC3)sc1c(O)c(Br)ccc12,,"inconclusive [activator, full curve, poor fit]"
N#Cc1c(NC(=O)c2ccc(Cn3cc(Br)cn3)o2)sc2c1CCCCC2,inactive: 19.9%,
CC(=C\c1ccccc1)/C=C1/SC(=S)N(C(C(=O)O)C(C)C)C1=O (configuration not stated),,"inconclusive [activator, partial curve, poor fit]"
O=C(NCC1CCCO1)c1sc2cc(Cl)ccc2c1Cl (configuration not stated),,"inconclusive [activator, partial curve, poor fit]"
CCc1nnc(NC(=O)CSc2nc(-c3ccc(F)cc3)cc(-c3ccccc3)c2C#N)s1,inactive: 3.99%,
COc1cc(/C=N/OCC(=O)NC23CC4CC(CC(C4)C2)C3)ccc1OCc1ccccc1,,"inconclusive [activator, partial curve, poor fit]"
CCOc1ccc(-c2c(=O)n(OCc3ccc([N+](=O)[O-])cc3)c3ccccc3[n+]2[O-])cc1,,"inconclusive [activator, partial curve, poor fit]"
COc1ccc(C2Nc3ccccc3C(=O)N2c2ccccc2)cc1COc1ccccn1 (configuration not stated),,"inconclusive [activator, partial curve, poor fit]"
